The results in this text go back to publication PMC10673843 (2023).

Experiment in all cases: SPR; apparent KD, dimeric Fc-fused target
In general terms: In SPR one partner is held on a chip, and binding of the other changes the refractive index at the surface.

In assay [1] the target is UU-44.
Assay [2] deals with UU-84.
Assay [3] deals with UU-40.
In assay [4] the target is UU-22.
Assay [5] addresses UU-10.
In assay [6] the target is UU-86.
Assay [7] concerns the target UU-14.
Assay [8] has as its target UU-8.
The target of assay [9] is UU-46.
The target of assay [10] is UU-34.
Assay [11] deals with UU-88.

B1: CD44 (isoform 4), Fc-fused (Fc fusion)
chain: [left out - about 200 residues]ATSTSSNTISAGWEPNEENEDERDRHLSFSGSGIDDDEDFISSTISTTPRAFDHTKQNQDWTQWNPSHSNPEVLLQTTTRMTDVDRNGTTAYEGNWNPEAHPPLIHHEHHEEEETPHSTSTIQATPSSTTEETATQKEQWFGNRWHEGYRQTPKEDSHSTTGTAAASAHTSHPMQGRTTPSPEDSSWTDFFNPISHPMGRGHQAGRRMDMDSSHSITLQPTANPNTGLVEDLDRTGPLSMTTQQSNSQSFSTSHEGLEEDKDHPTTSTLTSSNRNDVTGGRRDPNHSEGSTTLLEGYTSHYPHTKESRTFIPVTSAKTGSFGVTAVTVGDSNSNVNRSLSGDQDTFHPSGGSHTTHGSESDGHSHGSQEGGANTTSGPIRTPQIPE
For B1, the Kd in assay [1] stood at 3.8 nM; in assay [2] it was 7 nM; in assay [3], 0.8 nM; in assay [4], 3.8 nM; in assay [5], 1.1 nM; in assay [6], 3.2 nM. Besides, the Kd in assay [7] stood at 6.1 nM; in [8], 3.3 nM; in assay [9], 3.9 nM; in assay [10] it was 1.1 nM; in assay [11], 0.8 nM.
